According to PubChem BioAssay (NCI):
Several values for one entry are separate records, joined by “and”; a condition that tells them apart may be missing. Identical values can stand only once.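 Five compound concentrations were applied to cells in 96-well plates for 48 hours; endpoints were derived by simple linear interpolation of the resulting dose-response curve. Abbreviation: GI50, concentration required for 50% inhibition of growth. TGI: total growth inhibition.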

The molecules below were run on NCI-H322M lung (assay: NCI anticancer screen, dose series, 48 h).

Row | Structure (SMILES) | TGI | GI50
1 | CC(=N\N=C\c1ccccn1)/C(C)=N/N=C(C)/C(C)=N/N=C/c1ccccn1 | > 100 µM | 
2 | CC(C)(C)OC(=O)C1CC[C@@H](CC(=O)Oc2ccc([N+](=O)[O-])cc2)N1 (stereo partly specified) | > 100 µM | 
3 | Nc1ncnc2c1ncn2[C@H]1CC[C@@H](NO)C1 | > 100 µM | 
4 | COc1cc2c(cc1OC)C(=O)Cc1ccc(OC)c(OC)c1CN(C)CC2 | > 100 µM | 
5 | Cl/C(=C\C=Nc1ccc(I)cc1)c1ccc2ccccc2c1 | > 79.4 µM | 
6 | COC(=O)/C=C(/OC)[C@H](C)[C@H](/C=C/c1csc(-c2csc(C(C)C)n2)n1)OC | > 100 µM | 
7 | NC(N)=NS(=O)(=O)c1ccc(Nc2c3ccccc3nc3c(C(=O)Nc4ccc(S(N)(=O)=O)cc4)ccc(Cl)c23)cc1 | > 100 µM | 
8 | C[Si](C)(OCCS(=O)(=O)O)OC(=C1S(=O)(=O)OCCOS1(=O)=O)c1cccc2ccccc12 | > 100 µM | 
9 | OCC1OC(n2cnc3c(Cl)nc(Cl)cc32)C(O)C1O (stereo unspecified) | > 100 µM | > 100 µM
10 | COc1cc(-c2ncn(/C=C\C(=O)OC(C)C)n2)cc(C(F)(F)F)c1 | 5.14 µM and 11.2 µM | 0.253 µM and 0.219 µM
11 | COc1cc(O)c2c(c1)C(=O)c1cc3c(c(O)c1C2=O)C(OC1OC(C)C(O)C(O)C1OC)C(OC)C(C)(O)C3=O (stereo unspecified) | 21.5 µM and 8.3 µM | 
12 | O=c1[nH]cnc2c1CCCN2 | > 100 µM | 
13 | Cc1ccc(-c2nc(-c3cnccn3)n(C3OC(CO)C(O)C(O)C3O)n2)cc1 (stereo unspecified) | > 100 µM | 
14 | CC(C)(C)OC(=O)NC1CCC(C(C)(C)C)CC1 (stereo unspecified) | > 100 µM | 
15 | O=C1OCc2cc3cc4c(cc3c(-c3ccc5c(c3)OCO5)c21)OCO4 (tested in a mixture with another compound) | > 100 µM | 
16 | COc1ccc2c(ccc3c(COC(=O)NC(C)C)c(COC(=O)NC(C)C)n(C)c32)c1 | 39.8 µM | 
17 | COC(=O)/C=C\C(C#N)(C#N)N=Cc1ccc(Br)s1 | 33.2 µM | 
18 | O=C(/C(=C/c1ccc([N+](=O)[O-])cc1)SCc1ccc(F)cc1)c1ccc(Cl)cc1 | > 100 µM | > 100 µM
19 | COc1cc(OC)c(NC(=O)c2cc3ccccc3cc2O)cc1Cl | 22.7 µM | 2.82 µM
20 | O=C(Oc1ccc(Cl)cc1[N+](=O)[O-])c1ccccc1 | > 100 µM | 
21 | O=C1c2ccccc2-c2c1c1c(O)cccc1n2-c1ccccc1 | > 100 µM | > 100 µM
22 | NC1=NCCN1CC(=O)O | > 10000 µM | > 10000 µM
23 | NCCN1C(=O)C2C3c4ccccc4C(c4ccccc43)C2C1=O (stereo unspecified) | > 100 µM | 
24 | COc1ccc(-c2nc(N3CCN(C(=O)C4CCCCC4)CC3)c3c4c(sc3n2)CCCC4)cc1 | > 100 µM | > 100 µM
